The results in this text go back to ChEMBL document CHEMBL4888484, “Replenishing the malaria drug discovery pipeline: Screening and hit evaluation of the MMV Hit Generation Library 1 (HGL1) against asexual blood stage Plasmodium falciparum ,using a nano luciferase reporter read-out” (2022).

Among all 150,000 compounds or so, about 540 (0.36%) showed an effect of 50% or more. The list shows a part of the results.

The experiment relates to Plasmodium falciparum. Description: Primary screen in NF54 nanoGlo assay, in single point, at 2uM, 72h; a lower Z score goes with more inhibition. It counts as functional, Erythrocyte. The note with it: timepoint 72 hour.
In the case of `CCc1ccccc1NC(=O)CN1CCN(C(=O)c2ccc3cc(OC)ccc3c2)CC1`, the “% Inhibition” value is -49% and the Z score is listed as 5.75.
For `OC[C@@]1(CCc2ccccc2)CCCN(Cc2c[nH]nc2-c2cccc(F)c2)C1`, the “% Inhibition” value is 7% and the Z score is recorded as -0.86.
Take `CC(C)(C)C(=O)NCC(=O)Nc1c(O)cccc1F`: the “% Inhibition” value is recorded as 0% and the Z score was -0.01.
On the same counts, the results for `O[C@H](COCCc1c[nH]nn1)Cc1cccc(Cl)c1` are 1% and -0.14.
`CCCc1occc1C(=O)NCC(=O)N1CCC[C@H]1C(=O)NC`: the “% Inhibition” value is reported as -11% and the Z score stood at 1.48.
Turning to `COc1cccc2ncn([C@H]3COC[C@@H]3N3CCCC3)c(=O)c12`, the “% Inhibition” value is recorded as -15% and the Z score was found to be 1.36.
Consider `O=C(CCc1cn2ccccc2n1)N1CCC[C@@]2(CCCO2)CC1`, for which the “% Inhibition” value was -7% and the Z score is listed as 1.36.
For `C[C@H](NC(=O)Nc1cccnn1)c1nnnn1C1CC1`, in that order: -2% and 0.27.
For `Cc1nc(C)c(CNC(C)CC(O)c2cccs2)s1` (centres undefined), the “% Inhibition” value is recorded as -4% and the Z score is recorded as 0.48.
On to `CCC(C)N(C(=O)COc1ccc(Cl)cc1C)C(C)CC` (centres undefined), for which the “% Inhibition” value came out at 5% and the Z score is given as -0.58.
Consider `COc1cccc2c1Oc1ccccc1N=C2N1CCN(C(=O)C(C)C)CC1`, for which the “% Inhibition” value is recorded as -4% and the Z score turned out to be 0.5.
As for `CCNC(=O)NC1CCC(Nc2nc(C3CCCCC3)nc3c2c(C)nn3-c2ccccc2)CC1` (centres undefined), the “% Inhibition” value was -12% and the Z score is listed as 1.77.
For the compound `CCn1ccnc1CN(C)C(=O)Nc1cc(C)ccc1OC`, the “% Inhibition” value turned out to be 2% and the Z score is given as -0.21.
As for `CCN(CC(=O)N1CCCCCC1)C(=O)c1cc(Cl)cc2cccnc12`, the “% Inhibition” value is reported as -9% and the Z score was found to be 1.04.
For `Cc1cc(CN2CCN(C(=O)Cn3nc(C)cc3C)CC2)on1`, in that order: -3% and 0.56.
Turning to `CO[C@H]1C[C@@H](O)C12CCN(c1cc(N)nc(N3CCOCC3)n1)CC2`, the “% Inhibition” value is given as -17% and the Z score is listed as 2.79.
Regarding `CC1CCCCC1NC(=O)C1CCOCC1` (centres undefined), the “% Inhibition” value turned out to be 3% and the Z score is given as -0.43.
Regarding `CC(=O)Nc1ccc(Oc2ccc(-c3noc(-c4ccc(C)c(NC(C)=O)c4)n3)cc2)cc1`, the “% Inhibition” value is -14% and the Z score is 1.64.
As for `COCCC[C@]1(C(=O)O)CCCN(C(=O)CCC(F)(F)F)C1`, the “% Inhibition” value is -16% and the Z score is 2.74.
As to `Cc1ccc(NC(=O)C2[C@@H]3C=C[C@]4(O3)C(C(=O)NC3CCCCC3)N(CCN3CCCCCC3)C(=O)[C@H]24)cc1Cl` (some centres undefined), the “% Inhibition” value is 8% and the Z score is on record as -1.31.
For `O=C(c1scc2c1OCCO2)N1CCNC(=O)C12CCCC2`, in that order: 4% and -0.81.
In the case of `COc1ccc(C(=O)N2CC(=O)c3ccccc3S2(=O)=O)cc1OC`, the “% Inhibition” value is listed as -44% and the Z score was 5.17.
Take `COCCn1cnnc1CNC(=O)[C@@]1(C)CC[C@@H](C(=O)N(C)C)C1(C)C`: the “% Inhibition” value is 10% and the Z score is on record as -1.91.
Turning to `CC(C)Cn1cncc1CN1CCO[C@H](c2ccc(Cl)cc2)C1`, the “% Inhibition” value was -13% and the Z score was 1.83.
As to `O=C1CCC(=O)N1C1CC2CCC(C1)N2S(=O)(=O)c1cccnc1` (centres undefined), the “% Inhibition” value was -1% and the Z score was 0.06.
On the same counts, the results for `Cn1c(CN(CCC2CCCCC2)CC(N)=O)cc(=O)n(C)c1=O` are -5% and 0.59.
With `Cc1ccc(Nc2nc(C)c(NC(=O)c3ccc(Cl)cc3)c(Nc3ccc(C)cc3)n2)cc1`, the “% Inhibition” value was -15% and the Z score is 2.91.
As to `COCCN1C(=O)c2ccccc2C(C(=O)N2CCN(c3ccccn3)CC2)C1c1ccc(F)cc1` (centres undefined), the “% Inhibition” value was 15% and the Z score was -2.27.
Consider `Cc1cnc(C(NC2CCN(CC(F)(F)F)C2)C2CC2)s1` (centres undefined), for which the “% Inhibition” value is listed as -10% and the Z score amounted to 1.54.
On the same counts, the results for `COc1ccccc1CNC(=O)c1ccccc1N1C(=O)[C@@H]2Cc3c([nH]c4ccccc34)C(c3ccccc3)N2C1=O` (some centres undefined) are -5% and 0.41.
Regarding `Cc1cccc(OC2(C(=O)O)CCN(c3ncnc4[nH]ccc34)CC2)c1`, the “% Inhibition” value came out at 6% and the Z score was -0.81.
Regarding `Cc1cc(NC(=O)NCCc2cscn2)n(Cc2ccccn2)n1`, the “% Inhibition” value is recorded as -1% and the Z score worked out at 0.1.
For `CCCn1c(C)nnc1CN[C@@H](C)c1cccc(F)c1F`, in that order: -4% and 0.41.
On to `CS(=O)(=O)Cc1ccc(N2CC(c3ccncc3)C2)nc1`, for which the “% Inhibition” value was -8% and the Z score is 1.09.
`O=C(c1ccc2nccnc2c1)N1CC2CC1CS2(=O)=O` (centres undefined): the “% Inhibition” value is -6% and the Z score came to 0.69.
For the compound `CC(C)(C1=CCCCC1)c1noc(C[C@H]2CCC(=O)NC2)n1`, the “% Inhibition” value is on record as -12% and the Z score worked out at 1.65.
With `Oc1ccc(Cc2nc(-c3ncc[nH]3)no2)cc1`, the “% Inhibition” value was -6% and the Z score was 0.72.
For the compound `COc1ccc(S(=O)(=O)N2CC(NC3CCC4CN(Cc5ccccc5)CC43)C2)cc1` (centres undefined), the “% Inhibition” value was 44% and the Z score was -3.93.
On the same counts, the results for `Cc1cccnc1C[C@H](C)Nc1nc2c(s1)c(C)nn2C` are -13% and 1.65.
In the case of `CN1CCCC2(CCN(C(=O)CCc3nc4ccccc4s3)CC2)[C@H]1C(N)=O`, the “% Inhibition” value was -7% and the Z score was determined as 0.81.
Regarding `O=C1CCN(C(=O)Cc2ccc(Br)cc2)CCN1`, the “% Inhibition” value is -9% and the Z score came to 1.86.
Regarding `CCc1cnc(C)nc1N1CCC(c2nnc(Cn3cncn3)n2C)CC1`, the “% Inhibition” value is recorded as -11% and the Z score turned out to be 1.45.
In the case of `CC(C)N1C(=O)CC(C(=O)NOC2CCCCO2)C1c1ccc(Cl)c(F)c1` (centres undefined), the “% Inhibition” value is on record as -6% and the Z score is on record as 0.66.
As for `O=C(Nc1ccc(-c2ccn[nH]2)cc1)N1CCN[C@@H]2CS(=O)(=O)C[C@@H]21`, the “% Inhibition” value was -5% and the Z score was found to be 0.61.
`Brc1ccc(-c2oc(-c3ccccc3)cc2-c2nc3ccccc3[nH]2)cc1`: the “% Inhibition” value was 4% and the Z score was -0.84.
In the case of `CC(C)Cn1[nH]c(CC(=O)N[C@]2(C)C[C@H](C)CC(C)(C)C2)cc1=O`, the “% Inhibition” value is reported as -8% and the Z score came out at 1.06.
On the same counts, the results for `COC1(C)CC(NS(=O)(=O)N(C)C)C1(C)C` (centres undefined) are -3% and 0.53.
As for `Cc1ccc(NC(=O)c2ccc3c4c(cccc24)CC3)nc1`, the “% Inhibition” value is -8% and the Z score is 1.07.
For the compound `CCN(CC)c1ncccc1CNC(=O)c1cccc(Cl)c1`, the “% Inhibition” value stood at 4% and the Z score is recorded as -0.76.
On to `O=C(c1ccc(Cl)cc1)C1CN(c2ccccc2)CC1c1ccccc1F` (centres undefined), for which the “% Inhibition” value is -4% and the Z score is listed as 0.71.
For `COc1ccc(C(=O)NC[C@H]2OC[C@@H](NCc3ccc(F)cc3)[C@@H]2O)cc1`, in that order: -8% and 1.21.
With `CCc1nc(CC#N)nc(N2CCN(C(=O)c3ccco3)CC2)c1Cc1cccc(C)c1`, the “% Inhibition” value is listed as -20% and the Z score came out at 1.92.
As to `CCCCn1nc(C2CCCC2)nc1C[C@H]1CN(C(C)C)CCO1`, the “% Inhibition” value is given as 5% and the Z score was -0.81.
For `C=CCN1CCC[C@H]1C(=O)N(C)CC(C)(C)CO`, in that order: -18% and 1.67.
Consider `OC(COc1ccc(C2C=CCC2)cc1)CN1CCCCC1` (centres undefined), for which the “% Inhibition” value is given as 15% and the Z score is on record as -1.91.
For `CNC(=O)c1ccc(NCc2cccc(C)c2Br)nn1`, in that order: 5% and -0.91.
As for `CCN(Cc1nc(C)no1)C(=O)Nc1ccc(Cl)cc1C(F)(F)F`, the “% Inhibition” value was -2% and the Z score came to 0.32.
Take `O=C(NCc1cn(-c2ccncc2)nn1)c1ccc(Oc2nccs2)cc1`: the “% Inhibition” value is on record as -2% and the Z score was determined as 0.45.
On the same counts, the results for `COc1ccc(-n2nc(C)c3c2NC(=O)C[C@@H]3c2ccc(O)cc2)nn1` are -4% and 0.53.
On the same counts, the results for `Cn1cncc1Cc1noc(-c2ccco2)n1` are 31% and -3.46.
On the same counts, the results for `CCN(CC)CCN(CCC(F)(F)F)Cc1nc(-c2ccco2)no1` are 1% and -0.16.
Consider `CCC1=C(c2ccc(C)cc2)S(=O)(=O)N=C1NCC(=O)NCc1ccc(OC)cc1`, for which the “% Inhibition” value was -11% and the Z score turned out to be 1.11.
As to `CC[C@@H](COC)Nc1cccc(S(F)(F)(F)(F)F)c1`, the “% Inhibition” value was 5% and the Z score is -0.71.
In the case of `CCn1ncc(-c2ccnc3c4c(C)cc(C(F)(F)F)nc4nn23)c1C`, the “% Inhibition” value is -10% and the Z score was found to be 1.14.
As for `CCCCc1ccc(N2C(=O)[C@@H]3C(CC(N)=O)NC4(C(=O)Nc5c(Cl)cc(C)cc54)[C@@H]3C2=O)cc1` (some centres undefined), the “% Inhibition” value is -6% and the Z score is recorded as 0.79.
On the same counts, the results for `CCCn1nc(C)c(CNC(=O)Nc2ccc(CN3CCOCC3)cc2)c1C` are -3% and 0.48.
Turning to `O=C1NCCCCCCN(C(=O)NCCc2ccccc2)[C@H]2CCCC[C@@H]12`, the “% Inhibition” value is 3% and the Z score is given as -0.41.
On to `CN(Cc1noc(C2CCC2)n1)C[C@H]1CCCN1Cc1ccccc1`, for which the “% Inhibition” value is on record as -8% and the Z score is listed as 1.08.
Consider `CCc1cc(C(=O)N2CCC(c3nnc(Cn4ccnc4C)n3C)CC2)on1`, for which the “% Inhibition” value is on record as -8% and the Z score is 1.47.
Consider `CC[C@@H](COC)NC(=O)CCC(=O)Nc1c(C)cc(C)cc1C`, for which the “% Inhibition” value turned out to be 19% and the Z score is -2.39.
In the case of `O=C(C1c2ccccc2Oc2ccccc21)N1CC[C@H](n2nccn2)C1`, the “% Inhibition” value is 8% and the Z score is given as -1.1.
For `CC1=C[C@@H](CNC(=O)COCC(=O)O)[C@H](C(C)C)C[C@H]1Cc1nc2ccccc2[nH]1`, in that order: 2% and -0.2.
As for `Cn1cc(S(=O)(=O)NC[C@H]2CCN(c3ccccc3)C2)cn1`, the “% Inhibition” value was -1% and the Z score worked out at 0.22.
`CCc1cccc(C)c1NC(=O)N1CCC=C(F)C1`: the “% Inhibition” value is on record as -1% and the Z score was found to be 0.22.
With `CC(C)(C)OC(=O)NC/C(N)=N/OC(=O)c1cc(F)ccc1C(F)(F)F`, the “% Inhibition” value is on record as -3% and the Z score came to 0.65.
`COc1cc(NC(=O)[C@H]2CC[C@@H](c3ccccc3)O2)ncn1`: the “% Inhibition” value was -16% and the Z score worked out at 2.95.
`O=C1[C@@H](N2CC[S+]([O-])CC2)CCN1c1ccc(Cl)cc1Cl`: the “% Inhibition” value is recorded as -10% and the Z score was 1.61.
On to `COc1ccc(C(=O)N2CC(Oc3ccccc3-c3nc(C4CC4)no3)C2)cn1`, for which the “% Inhibition” value is reported as -11% and the Z score came to 1.28.
For the compound `CC(C)(C)c1cc(CN2C[C@H](O)[C@@H](F)C2)n[nH]1`, the “% Inhibition” value is -11% and the Z score was determined as 1.3.
As to `COc1ccc(NC(=O)c2ccco2)cc1Nc1cc(C)nc2nc(-c3cccc(C)c3)nn12`, the “% Inhibition” value came out at 8% and the Z score is recorded as -1.19.
Turning to `Cc1cccc2[nH]c([C@@H]3CCCN3CC(=O)Nc3ccn(C)n3)nc12`, the “% Inhibition” value is listed as 2% and the Z score is -0.44.
In the case of `Cc1ccc(-c2cc(CN(C(=O)c3ccco3)C3CC3)no2)cc1C`, the “% Inhibition” value is reported as 0% and the Z score is reported as -0.04.
